Data on 58 compounds can be found in the supplement of paper PMC9446081.

SMILES strings stand for the structures. The whole screen tested about 39,000 compounds, of which about 220 (0.56%) showed activity. Some of the results follow.
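Also: static incubation at 37 °C against the wild-type strain, values averaged over two biological replicates.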

The test has as its system Escherichia coli K-12 BW25113. Put plainly: relative growth (OD600 normalised to plate interquartile mean) (fraction); higher = less growth inhibition, active = 0.2 or less. Conditions: 50 µM; LB; incubation time: overnight (16-24 h).
For the compound `C[C@H](CO)N1C[C@H](C)[C@@H](CN(C)C(=O)CN2CCOCC2)Oc2ncc(C#CCN(C)C)cc2C1=O`, the relative growth is inactive: 1.02.

For the compound `C[C@H](CO)N1C[C@H](C)[C@@H](CN(C)Cc2ccc(C(=O)Nc3ccccc3N)cc2)Oc2ccc(NC(=O)Nc3ccc4c(c3)OCO4)cc2CC1=O`, the relative growth was inactive: 0.994.

For `C[C@H](CO)N1C[C@H](C)[C@@H](CN(C)C(=O)Nc2cccc3ccccc23)OCCCC[C@H](C)Oc2ccc(NC(=O)Cc3ccccc3)cc2C1=O`, the relative growth is inactive: 1.04.

On to `C[C@H]1CN([C@@H](C)CO)C(=O)Cc2cc(NC(=O)Nc3cccc4ccccc34)ccc2O[C@@H]1CN(C)S(=O)(=O)c1ccc(F)cc1`, for which the relative growth is inactive: 1.02.

Consider `C[C@@H]1CN([C@H](C)CO)C(=O)Cc2cc(NC(=O)Cc3cn(C)c4ccccc34)ccc2O[C@H]1CN(C)Cc1ccc(C(=O)Nc2ccccc2N)cc1`, for which the relative growth was inactive: 1.02.

Take `C[C@@H]1CN([C@@H](C)CO)C(=O)c2cccc(NS(=O)(=O)c3cn(C)cn3)c2O[C@@H]1CN(C)C(=O)Nc1ccc(F)cc1`: the relative growth was inactive: 0.996.

Turning to `CCCCN[C@H]1CCS(=O)(=O)C1`, the relative growth was inactive: 0.994.

Regarding `C=CCCC(=O)N(C)[C@H](C)[C@@H](OC(=O)[C@@H]1[C@@H]2C=C[C@]3(O2)[C@H](CN(CC=C)Cc2ccccc2)N(C(C)(C)C)C(=O)[C@@H]13)c1ccccc1`, the relative growth was inactive: 1.01.

`O=c1n(C[C@H]2CO2)c(=O)n(C[C@H]2CO2)c(=O)n1C[C@H]1CO1`: the relative growth was inactive: 1.01.

For the compound `C[C@H]1CN([C@@H](C)CO)S(=O)(=O)c2ccc(C#Cc3cccc(F)c3)cc2O[C@@H]1CN(C)S(=O)(=O)c1ccccc1F`, the relative growth is inactive: 0.976.

Regarding `Cc1noc(C)c1NC(=O)Nc1cccc2c1O[C@@H](CN(C)S(C)(=O)=O)[C@@H](C)CN([C@@H](C)CO)C2=O`, the relative growth is inactive: 0.998.

On to `COc1ccc(CN(C)C[C@@H]2Oc3ccc(NC(=O)CCN4CCOCC4)cc3CC(=O)N([C@@H](C)CO)C[C@@H]2C)cc1`, for which the relative growth is inactive: 0.975.

In the case of `COC1=CC(=O)CC(C)C12Oc1c(Cl)c(OC)cc(OC)c1C2=O` (stereo not drawn), the relative growth was inactive: 1.08.

With `COc1ccc(NC(=O)Nc2ccc3c(c2)C(=O)N([C@@H](C)CO)C[C@@H](C)[C@@H](CN(C)S(=O)(=O)c2ccc(F)cc2)OCCCC[C@H](C)O3)cc1`, the relative growth was inactive: 1.02.

With `CC(C)NC(=O)Nc1ccc2c(c1)CC(=O)N([C@@H](C)CO)C[C@@H](C)[C@H](CN(C)S(=O)(=O)c1ccc(F)cc1)O2`, the relative growth is inactive: 1.

For `C[C@@H]1CN([C@H](C)CO)C(=O)c2cc(NS(=O)(=O)c3cccs3)ccc2O[C@@H]1CN(C)Cc1ccc(Oc2ccccc2)cc1`, the relative growth was inactive: 0.944.

On to `C[C@H](O)C#Cc1ccc2c(c1)O[C@H](CN(C)C(=O)c1ccccc1)[C@H](C)CN([C@@H](C)CO)S2(=O)=O`, for which the relative growth was inactive: 1.01.

Take `COc1ccc(S(=O)(=O)N(C)C[C@@H]2Oc3c(NC(=O)c4ccncc4)cccc3C(=O)N([C@@H](C)CO)C[C@@H]2C)cc1`: the relative growth is inactive: 0.995.

For `O=C(C[C@@H]1C=C[C@@H](NC(=O)Cc2ccccn2)[C@H](CO)O1)NCCc1ccncc1`, the relative growth was inactive: 0.999.

Take `COCC(=O)Nc1ccc2c(c1)C(=O)N(C)[C@@H]1CC[C@@H](CC(=O)N3CCc4ccccc4C3)O[C@H]1CO2`: the relative growth is inactive: 0.998.

Turning to `C[C@@H]1CN([C@H](C)CO)C(=O)c2cc(NC(=O)C3CCCCC3)ccc2O[C@@H](C)CCCCO[C@@H]1CN(C)S(=O)(=O)c1ccc(Cl)cc1`, the relative growth is inactive: 0.996.

Take `C[C@H]1CN([C@@H](C)CO)C(=O)Cc2cc(NC(=O)CCC(F)(F)F)ccc2O[C@@H]1CN(C)S(C)(=O)=O`: the relative growth was inactive: 0.996.

For `Nc1ccc(OCC(=O)N2CCOCC2)cc1`, the relative growth is inactive: 1.03.

On to `C[C@H](CO)N1C[C@H](C)[C@H](CN(C)S(=O)(=O)c2ccc(Cl)cc2)Oc2ccc(NS(C)(=O)=O)cc2C1=O`, for which the relative growth is inactive: 1.01.

For the compound `C[C@@H]1CCCCO[C@@H](CN(C)S(=O)(=O)c2cccs2)[C@@H](C)CN([C@H](C)CO)C(=O)c2cc(NC(=O)NC3CCCCC3)ccc2O1`, the relative growth is inactive: 1.01.

As to `COCCOC(=O)N1C(=O)[C@@]2(c3cc(C#CCNC(N)=O)ccc31)[C@H](C(=O)N1CCc3cc(OC)c(OC)cc3C1)[C@H]1C(=O)O[C@H](c3ccccc3)[C@H](c3ccccc3)N1[C@@H]2c1ccccc1OCCO`, the relative growth was inactive: 1.04.

For the compound `C[C@H]1CN([C@@H](C)CO)C(=O)c2cccc(NS(=O)(=O)c3ccc(Cl)cc3)c2O[C@@H]1CN(C)C(=O)Nc1ccc(C(F)(F)F)cc1`, the relative growth was inactive: 0.866.

With `COc1ccc2c3c([nH]c2c1)[C@@H](CO)N(C[C@]13CCN(CC1)CC1CCCCC1)C(=O)Nc1cccc(c1)F`, the relative growth was inactive: 0.999.

Take `CN1C(=O)c2cc(NC(=O)Nc3ccccc3F)ccc2OC[C@H]2O[C@@H](CC(=O)NCc3ccc(-c4ccccc4)cc3)CC[C@H]21`: the relative growth is inactive: 1.01.

On to `Cc1ccc(S(=O)(=O)N(C)C[C@@H]2Oc3ccc(NS(=O)(=O)c4c(C)noc4C)cc3CC(=O)N([C@@H](C)CO)C[C@H]2C)cc1`, for which the relative growth is inactive: 1.02.

`O=C(C[C@H]1C[C@H]2c3cc(NS(=O)(=O)c4ccc(F)cc4)ccc3O[C@H]2[C@H](CO)O1)NCCN1CCCCC1`: the relative growth is inactive: 1.

For `C[C@@H]1CCCCO[C@H](CN(C)Cc2ccccc2)[C@H](C)CN([C@H](C)CO)C(=O)c2cc(NC(=O)CCC(F)(F)F)ccc2O1`, the relative growth is inactive: 0.985.

With `N[C@@H]1CC[C@@H](c2ccc(Cl)c(Cl)c2)c2ccccc21`, the relative growth is active: 0.0794.

In the case of `C[C@@H]1CN([C@H](C)CO)C(=O)c2cccc(NS(=O)(=O)c3ccc(Cl)cc3)c2O[C@H]1CN(C)Cc1ccc(Oc2ccccc2)cc1`, the relative growth is inactive: 1.04.

With `Cc1noc(C)c1NC(=O)Nc1ccc2c(c1)C(=O)N([C@H](C)CO)C[C@@H](C)[C@@H](CN(C)S(=O)(=O)c1ccccc1)O2`, the relative growth is inactive: 0.997.

As to `C[C@@H]1CN([C@@H](C)CO)C(=O)CCCn2nncc2CO[C@H]1CN(C)S(=O)(=O)c1ccc(Cl)cc1`, the relative growth is inactive: 0.987.

On to `C[C@@H]1CN([C@H](C)CO)C(=O)c2cccc(NC(=O)C3CCOCC3)c2O[C@@H]1CN(C)Cc1ccncc1`, for which the relative growth was inactive: 1.

Consider `C[n+]1cccc(C(=O)[O-])c1`, for which the relative growth was inactive: 0.934.

`Cc1noc(C)c1NC(=O)N(C)C[C@@H]1Oc2ccc(NC(=O)Nc3ccc(C(F)(F)F)cc3)cc2CC(=O)N([C@H](C)CO)C[C@@H]1C`: the relative growth was inactive: 1.

`COCC(=O)N1C[C@H](C)[C@H](OC)CN(C)C(=O)c2ccc(NC(=O)Nc3ccccc3)cc2OC[C@H]1C`: the relative growth is inactive: 0.847.

`C[C@@H]1CCCCO[C@H](CN(C)Cc2ccccc2)[C@@H](C)CN([C@H](C)CO)C(=O)c2cc(NC(=O)Nc3ccc(F)cc3)ccc2O1`: the relative growth was inactive: 1.02.

Consider `COc1cccc(S(=O)(=O)Nc2ccc3c(c2)[C@@H]2C[C@H](CC(=O)NCCc4ccccc4)O[C@@H](CO)[C@@H]2O3)c1`, for which the relative growth is inactive: 0.977.

Regarding `NCC[C@@H]1CC[C@H](NC(=O)Nc2ccc(F)cc2)[C@H](CO)O1`, the relative growth was inactive: 0.985.

On to `C[C@H](O)C#Cc1cnc2c(c1)C(=O)N([C@H](C)CO)C[C@H](C)[C@H](CN(C)C(=O)Nc1ccc(C(F)(F)F)cc1)O2`, for which the relative growth is inactive: 0.982.

For `C[C@H]1CN([C@@H](C)CO)C(=O)Cc2cc(NC(=O)CCN3CCOCC3)ccc2O[C@H]1CN(C)C(=O)Nc1ccccc1`, the relative growth was inactive: 0.946.

For the compound `COc1ccc([Si](C)(C)[C@@H]2[C@@H](CCn3cc(CCO)nn3)O[C@]3(C(=O)N(C)c4ccccc43)[C@H]2C)cc1`, the relative growth is inactive: 0.976.

Consider `Cc1noc(C)c1S(=O)(=O)N(C)C[C@H]1OCCCC[C@H](C)Oc2ccc(NC(=O)Nc3ccccc3)cc2C(=O)N([C@@H](C)CO)C[C@@H]1C`, for which the relative growth was inactive: 1.01.

With `COCc1cc(C)nc2n[nH]c(N)c12`, the relative growth is inactive: 0.975.

In the case of `C[C@@H]1CCCCO[C@H](CN(C)C(=O)Nc2ccc(F)cc2)[C@@H](C)CN([C@@H](C)CO)C(=O)c2cc(NC(=O)Nc3ccccc3)ccc2O1`, the relative growth is inactive: 1.01.

On to `C[C@H]1CCCCO[C@@H](CN(C)C(=O)Nc2ccc(C(F)(F)F)cc2)[C@@H](C)CN([C@@H](C)CO)C(=O)c2cc(NC(=O)NC3CCCCC3)ccc2O1`, for which the relative growth is inactive: 1.02.

Take `CC(C)CC#Cc1ccc2c(c1)O[C@H](CN(C)Cc1cncnc1)[C@@H](C)CN([C@@H](C)CO)S2(=O)=O`: the relative growth was inactive: 0.922.

Consider `C[C@@H]1CN([C@H](C)CO)C(=O)CCCn2cc(nn2)CO[C@H]1CN(C)S(=O)(=O)c1cn(C)cn1`, for which the relative growth is inactive: 0.999.

As to `CO[C@H](CN(C)C(=O)c1ccccc1F)[C@H](C)CN([C@@H](C)CO)S(=O)(=O)c1ccc(Cl)cc1`, the relative growth is inactive: 0.991.

As for `C[C@H](CO)N1C[C@H](C)[C@H](CN(C)C(=O)Nc2cccc3ccccc23)OCCCC[C@H](C)Oc2ccc(NC(=O)CCCN(C)C)cc2C1=O`, the relative growth is inactive: 0.971.

Turning to `OCCN(CCO)c1nc2ccccc2[nH]1`, the relative growth is inactive: 0.974.

Turning to `C[C@@H]1CCCCO[C@H](CN(C)S(=O)(=O)c2ccc(F)cc2)[C@H](C)CN([C@H](C)CO)C(=O)c2cc(NC(=O)CCC(F)(F)F)ccc2O1`, the relative growth is inactive: 1.02.

For the compound `C[C@@H]1CCCCO[C@H](CN(C)C(=O)Nc2ccccc2)[C@H](C)CN([C@@H](C)CO)C(=O)c2cc(NC(=O)NC3CCCCC3)ccc2O1`, the relative growth is inactive: 1.

As to `Cc1noc(C)c1NC(=O)N(C)C[C@@H]1Oc2c(NC(=O)C3CCOCC3)cccc2C(=O)N([C@H](C)CO)C[C@H]1C`, the relative growth is inactive: 0.975.
